# Measurements from PMC4336329 (PLoS ONE, 2015).
# The campaign covered roughly 310,000 compounds. About 14,000 (4.5%) showed an effect of 50% or more. Effects have a minus sign here. The list shows a part of the results.
# Molecular target: human ether-à-go-go-related gene (hERG) potassium channel (human, UniProt Q12809)
# Assay: primary screen, population patch clamp on CHO cells stably expressing hERG
# 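Note: peak tail current of the secondary pulse compared with the same well before compound.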
# Sequence of human ether-à-go-go-related gene (hERG) potassium channel (Q12809 whole entry, looked up): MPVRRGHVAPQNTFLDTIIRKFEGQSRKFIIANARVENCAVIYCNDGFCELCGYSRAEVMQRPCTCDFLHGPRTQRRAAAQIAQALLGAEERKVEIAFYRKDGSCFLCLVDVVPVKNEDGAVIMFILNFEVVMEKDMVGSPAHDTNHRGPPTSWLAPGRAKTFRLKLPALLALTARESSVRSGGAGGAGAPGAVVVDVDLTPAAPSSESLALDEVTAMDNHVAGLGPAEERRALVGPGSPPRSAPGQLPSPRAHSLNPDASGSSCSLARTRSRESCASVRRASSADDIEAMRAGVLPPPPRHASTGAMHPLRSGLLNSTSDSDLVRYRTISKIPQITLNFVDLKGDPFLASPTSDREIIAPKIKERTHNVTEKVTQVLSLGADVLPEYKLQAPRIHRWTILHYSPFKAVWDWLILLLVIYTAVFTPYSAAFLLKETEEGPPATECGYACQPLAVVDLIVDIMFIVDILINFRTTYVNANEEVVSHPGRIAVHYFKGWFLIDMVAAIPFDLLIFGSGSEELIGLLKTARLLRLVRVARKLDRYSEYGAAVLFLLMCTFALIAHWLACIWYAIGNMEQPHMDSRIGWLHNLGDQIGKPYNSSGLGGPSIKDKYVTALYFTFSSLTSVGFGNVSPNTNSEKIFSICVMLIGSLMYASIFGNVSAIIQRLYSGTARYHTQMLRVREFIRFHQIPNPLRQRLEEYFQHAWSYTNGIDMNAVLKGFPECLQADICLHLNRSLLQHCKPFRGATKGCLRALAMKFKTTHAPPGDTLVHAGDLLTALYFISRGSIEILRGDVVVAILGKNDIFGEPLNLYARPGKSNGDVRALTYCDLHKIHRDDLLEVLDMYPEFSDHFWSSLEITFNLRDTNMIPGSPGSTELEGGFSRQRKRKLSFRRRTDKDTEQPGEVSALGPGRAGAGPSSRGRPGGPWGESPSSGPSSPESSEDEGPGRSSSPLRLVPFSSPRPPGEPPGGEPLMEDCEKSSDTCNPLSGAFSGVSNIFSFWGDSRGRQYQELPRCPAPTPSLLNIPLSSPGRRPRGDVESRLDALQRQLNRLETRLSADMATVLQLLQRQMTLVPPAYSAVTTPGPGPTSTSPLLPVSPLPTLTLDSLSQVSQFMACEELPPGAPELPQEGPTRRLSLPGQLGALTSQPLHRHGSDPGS
row,SMILES,"hERG current change (%, negative = inhibition) at 10uM [%]"
1,COc1cc(C(=O)Oc2cccnc2)cc(OC)c1OC.Cl,17
2,Cn1nc(C(C)(C)C)cc1C(=O)NCc1ccc(N2CCCC2=O)cc1,-14.6
3,CCN1C(=O)/C(=C\c2cn(CCC#N)nc2-c2ccc(F)cc2)SC1=S,5
4,COc1ccc(CCNC(=O)CSc2nc(O)cc(=O)[nH]2)cc1OC,9.95
5,COc1ccc(CCCc2nnc(SCC(=O)Nc3nccs3)n2C)cc1C,4.33
6,O=C(CCCOc1ccc(Cl)cc1Cl)N1CCC2(CC1)OCCO2,-39.5
7,COC(=O)COc1ccc(C2NC(=O)NC(c3ccccc3)=C2C(C)=O)cc1Br (centres unmarked),12.8
8,C=CCN=C1CCCc2c1[nH]c1ccc(C)cc21,-8.98
9,CCOc1cccc2cc(-c3nnc(NCc4ccco4)s3)c(=O)oc12,-2.37
10,CCOC(=O)C1CCN(C(=O)C(=O)N2CCC(C(=O)OCC)CC2)CC1,-14.1
11,C/C=C/c1ccc(OCCCCn2cncn2)c(OC)c1,-14.9
12,COC(=O)c1cnc(NNS(=O)(=O)c2ccc(Cl)cc2)nc1C(F)(F)F,-7.18
13,CNc1[nH]ncc1[N+](=O)[O-],12.4
14,COc1ccc(/C=N/NC(=O)c2ccncc2)c(OC)c1,19.3
15,CSc1ccc(C(=O)NCC(c2ccco2)N(C)C)cc1[N+](=O)[O-] (centres unmarked),17.8
16,O=C(C1=C(O)C(=O)N(CC2CCCO2)C1c1cccc(O)c1)c1ccco1 (centres unmarked),5.04
17,Cc1ccc(C)c(NC(=O)CSc2ccc(-c3ccco3)nn2)c1,31
18,S=C(NCc1ccncc1)Nc1cccc(Cl)c1,-28.4
19,COCCCNC(=O)C(=O)Nc1cc2c3c(c1)CCC(=O)N3CCC2,20.3
20,COc1ccc(C(=O)Nc2ccc(S(=O)(=O)Nc3nccnc3OC)cc2)cc1OC,4.52
21,COC(=O)c1ccc(/C=C(\C#N)c2ccccn2)cc1,15.2
22,COc1ccccc1-c1nc(SCC(=O)Nc2ccccc2F)n[nH]1,-5.52
23,CC(C)(C)c1ccc(OCC(=O)N2CCN(c3ccccn3)CC2)cc1,-51.7

row,SMILES,"hERG current change (%, negative = inhibition) at 10uM [%]"
1,Cc1cc(C)n(CCN(C)C(=O)C2CCC(=O)N(CCN3CCOCC3)C2)n1 (centres unmarked),9.46
2,COc1cccc(NC(=O)C(=O)c2cn(CC(=O)N3CCOCC3)c3ccccc23)c1,-0.727
3,COc1cc(C2Nc3ccc4ccccc4c3C3=C2C(=O)CC(C)(C)C3)ccc1OCC(=O)O (centres unmarked),19.5
4,Cc1ccnc(NC(=O)CCNC(=O)c2ccc(Cl)cc2)c1,13.2
5,CCOc1c(N2CCOCC2)c(=O)c1=O,13.5
6,CN1C(=O)N(C)C2(c3ccccc3)N(C(C)(C)C)C(=O)NC12c1ccccc1 (centres unmarked),-20
7,COC(=O)c1sc2ncccc2c1OCc1c(Cl)cccc1Cl,34.2
8,COc1ccc(N=Nc2ccc(CO)cc2)cc1,-28.3
9,COc1cccc(Oc2c(C)oc3cc(OC(=O)N(C)C)ccc3c2=O)c1,-12.4
10,CCC1(CC)Cc2ccccc2C(C2=C(O)CC(C)(C)CC2=O)=N1,7.12
11,CCOC(=O)NCc1ccc(CNC(=O)OCC)cc1,11.8
12,COc1cc(C(=S)N2CCOCC2)ccc1OS(=O)(=O)c1ccc(NC(C)=O)cc1,-3.21
13,O=C(CN(Cc1ccco1)Cc1ccco1)Nc1cc(S(=O)(=O)N2CCCCC2)ccc1Cl,-49.6
14,CC(C)(C)C(=O)Nc1nnc(SCC(=O)NC2CCCC2)s1,14.4
15,O=[N+]([O-])c1ccc(S(=O)(=O)CC(CN2CCOCC2)N2CCOCC2)cc1 (centres unmarked),-1.68
16,CC1(C)NC(=O)N(CCOCCOc2cccc(Oc3ccccc3)c2)C1=O,-8.91
17,Cc1ccc(N(Cc2cc(=O)[nH]c3ccccc23)C(=O)c2ccco2)cc1,-34.4
18,Cc1cc(OC(C)C(=O)NCC2CCC(C(=O)O)CC2)c2c(C)cc(=O)oc2c1 (centres unmarked),24.5
19,O=C(NC1CC1)C1CCN(C2CCN(C(=O)/C=C/c3ccc(F)cc3)CC2)CC1,-62.9
20,Cc1ccc(Sc2ccc(S(=O)(=O)Nc3ccc(CC(=O)O)cc3)cc2)cc1C,3.13
21,O=C(CCC(=O)Nc1cccnc1)Nc1cccnc1,16.8
22,CCOc1ccccc1NC(=O)CN1CCN(C(=O)C2CCCO2)CC1 (centres unmarked),-10.6
23,N#Cc1sc(NCc2ccccc2)nc1Cl,-12.3

row,SMILES,"hERG current change (%, negative = inhibition) at 10uM [%]"
1,Cc1ccc(C)c(NC(=S)N2CCN(c3ccccn3)CC2)c1,14.2
2,Cn1nnnc1SCC(=O)Nc1ccccc1Cl,9.22
3,Cn1cc(Br)c(C(=O)NNC(=O)c2ccc(Br)cc2)n1,4.21
4,CCOC(=O)C1C(=O)NC(c2ccccc2)=NC1c1ccc(Br)cc1 (centres unmarked),10.4
5,CC(=O)/C=C\c1ccccc1OC(=O)c1cc2ccccc2oc1=O,12.2
6,O=Cc1cn(CCC(=O)O)nc1-c1cccc(Cl)c1,16.7
7,COc1ccc(NC(=O)Cc2c[nH]c3ccccc23)cc1S(=O)(=O)N1CCOCC1,-0.207
8,O=C(C[n+]1ccccc1)N/N=C/c1ccccc1[N+](=O)[O-].[Cl-],40.2
9,C=C1CCC(O)C2(C)CCC3C(C)C(=O)OC3C12O (centres unmarked),13.6
10,Cc1cc(NC(=O)CCc2ccc(S(=O)(=O)N3CCOCC3)cc2)n(-c2ccccc2)n1,-15.2
11,CCOc1ccc(-n2ccnc(SCC(=O)Nc3cccc(OC)c3)c2=O)cc1,-12.8
12,O=C(OCc1nnc(-c2ccccc2)o1)c1ccc([N+](=O)[O-])o1,8.25
13,COc1ccc(NC2CCCN(C(=O)c3csc(C(C)C)n3)C2)cc1 (centres unmarked),0.853
14,NS(=O)(=O)c1ccc(CCNS(=O)(=O)c2cccc(C(=O)O)c2)cc1,15.9
15,COc1cc(OC)cc(C(=O)NC(=S)N2C[C@H]3C[C@H](C2)c2cccc(=O)n2C3)c1,16.6
16,COc1ccc(/C=N/N=C/c2c[nH]c(=O)c(C#N)c2Nc2ccccc2)cc1,5.81
17,NC(=S)NNC(=O)c1ccccc1Cl,2.41
18,CCC(=O)Nc1nc2ccc(NC(=O)COc3ccccc3)cc2s1,28.7
19,Cc1ccc(S(=O)(=O)N2CCc3ccccc3C2)cc1C,20.4
20,O=C(CCN1CCN(c2ccccc2)CC1)Nc1ccc(OCc2ccccc2)cc1,6.94
21,CC(C)c1cc(C(=O)N2CCCC(Nc3ccc(F)cc3)C2)nc(N)n1 (centres unmarked),17.8
22,COC(=O)[C@@H]1[C@@H](C#N)C2(c3ccccc3-c3ccccc32)N(c2ccc(Cl)cc2)N1C#N,3.67
23,CCn1c(SCC(=O)Nc2ccc3c(c2)OCCO3)nnc1-c1ccccn1,-16.1

row,SMILES,"hERG current change (%, negative = inhibition) at 10uM [%]"
1,C=CCN1C(=O)C(CC(=O)O)SC1=Nc1cccc([N+](=O)[O-])c1 (centres unmarked),6.72
2,Cc1nn(Cc2ccc(F)cc2)c(C)c1NC(=O)C1c2ccccc2Oc2ccccc21,17.1
3,Cc1ccc(NC(=O)C2CCN(S(=O)(=O)c3c(C)[nH]c(=O)[nH]c3=O)CC2)cc1,12.9
4,CCOC(=O)c1c(S(=O)(=O)N2CCN(C3CCCCC3)CC2)c(C)n(C)c1C,-35.1
5,Cc1ccc(-c2nc3ccccc3c(=O)n2-c2cccc(C)n2)cc1,-2.48
6,Cc1cccc(NC(=O)NCc2ccc3c(c2)OCO3)c1C,2.89
7,COC(=O)c1nn(-c2ccccc2)c(=O)cc1Sc1ccc(Cl)cc1,3
8,CC(OC(=O)Cc1n[nH]c(=O)c2ccccc12)C(=O)Nc1ccc(Cl)cn1 (centres unmarked),-9.18
9,Cc1ccc(C)c(N(CC(=O)NC2CCCC2)C(=O)c2csnn2)c1,12
10,O=C(COc1ccc(Cl)cc1Cl)NNC(=S)NCc1ccco1,-19.6
11,COc1cc(OC)cc(C(=O)NCCSC2CCCCC2)c1,-19.7
12,CN(C)S(=O)(=O)c1ccc(Cl)c(C(=O)Nc2cccc3ncccc23)c1,3.53
13,O=C(c1cnccn1)N1CCc2ccccc2C1,3.49
14,Cc1ccc(Nc2nc(CSc3nnnn3C)cs2)cc1,-14.8
15,CS(=O)(=O)Nc1cccc(C2=NN(C(=O)c3ccc(F)cc3)C(c3cccs3)C2)c1 (centres unmarked),-7.71
16,CCN(CC)S(=O)(=O)c1ccc(Cl)c(NC(=O)COC(=O)C2CCCCC2)c1,-3.35
17,COc1ccc(N2CC(C(=O)NC3CC(C)(C)NC(C)(C)C3)CC2=O)cc1 (centres unmarked),-2.68
18,CN(C(=O)COc1ccc(-c2nnco2)cc1)C1CCS(=O)(=O)C1 (centres unmarked),-8.5
19,O=C(NS(=O)(=O)c1ccccc1)c1ccccc1O,-6.27
20,O=C(/C=C/NNC(=O)c1ccccc1)c1ccccc1,-6.75
